# According to PMC4336329 (PLoS ONE, 2015):
# Hit rate of the full screen: of about 310,000 compounds, about 2,200 (0.71%) showed an effect of 50% or more. The effect is printed as a negative number. The list shows a part of the results.
# Molecular target: human ether-à-go-go-related gene (hERG) potassium channel (human, UniProt Q12809)
# Assay: primary screen, population patch clamp on CHO cells stably expressing hERG
# Sequence of human ether-à-go-go-related gene (hERG) potassium channel (Q12809 whole entry, looked up): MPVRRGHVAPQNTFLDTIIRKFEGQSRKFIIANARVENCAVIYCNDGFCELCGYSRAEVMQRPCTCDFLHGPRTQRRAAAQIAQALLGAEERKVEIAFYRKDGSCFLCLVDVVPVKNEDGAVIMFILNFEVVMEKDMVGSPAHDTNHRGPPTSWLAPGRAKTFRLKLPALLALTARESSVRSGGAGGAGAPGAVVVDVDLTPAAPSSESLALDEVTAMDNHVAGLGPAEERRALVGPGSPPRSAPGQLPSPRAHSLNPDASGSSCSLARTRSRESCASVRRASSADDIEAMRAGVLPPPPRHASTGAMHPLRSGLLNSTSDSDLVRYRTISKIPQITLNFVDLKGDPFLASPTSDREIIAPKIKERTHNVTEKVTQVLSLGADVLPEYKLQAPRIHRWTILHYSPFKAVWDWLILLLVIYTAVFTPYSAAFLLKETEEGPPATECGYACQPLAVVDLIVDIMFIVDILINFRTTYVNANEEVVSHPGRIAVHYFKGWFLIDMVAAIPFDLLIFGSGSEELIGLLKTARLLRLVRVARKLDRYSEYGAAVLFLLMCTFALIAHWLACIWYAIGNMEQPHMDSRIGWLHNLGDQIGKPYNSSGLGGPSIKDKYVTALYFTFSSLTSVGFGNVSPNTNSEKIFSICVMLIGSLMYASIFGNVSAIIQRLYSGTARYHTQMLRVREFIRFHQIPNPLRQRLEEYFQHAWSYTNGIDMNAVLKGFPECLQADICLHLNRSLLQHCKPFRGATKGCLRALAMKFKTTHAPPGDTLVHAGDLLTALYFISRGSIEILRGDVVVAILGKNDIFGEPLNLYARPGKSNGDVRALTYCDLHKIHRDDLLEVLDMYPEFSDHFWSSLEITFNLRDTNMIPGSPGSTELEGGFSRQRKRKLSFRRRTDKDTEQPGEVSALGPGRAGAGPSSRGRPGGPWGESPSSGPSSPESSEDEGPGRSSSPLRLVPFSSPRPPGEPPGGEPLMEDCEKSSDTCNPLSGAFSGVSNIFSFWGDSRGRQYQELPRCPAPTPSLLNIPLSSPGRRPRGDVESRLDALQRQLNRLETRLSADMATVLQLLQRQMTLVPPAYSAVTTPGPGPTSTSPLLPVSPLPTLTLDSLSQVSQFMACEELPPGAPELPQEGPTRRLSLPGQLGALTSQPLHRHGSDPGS
row,Compound,"hERG current change (%, negative = inhibition) at 1uM"
1,Cc1cccc(C)c1NC(=O)COc1ccc2c(C)c(Cc3ccccc3)c(=O)oc2c1,5.44%
2,O=C(Nc1ccccc1)Nc1c(F)cccc1F,16.1%
3,Fc1ccc(NCc2n[nH]c(=S)n2Cc2ccccc2)cc1,7.2%
4,CC(=O)Nc1ccc(NC(=O)CSc2nnc(NC(=O)c3ccc(Br)o3)s2)cc1,6.1%
5,CC(C)(C)C(=O)Nc1c2c(nn1-c1ccccc1)CSC2,11.7%
6,NS(=O)(=O)c1ccc(NC(=O)Cc2cccs2)cc1,13.2%
7,O=C(CN1CCN(c2ccc(F)cc2)CC1)c1ccc(O)cc1O,6.76%
8,Cc1c(NC(=O)Cn2nc(C(=O)O)c3ccccc3c2=O)c(=O)n(-c2ccccc2)n1C,3.87%
9,O=C(Cc1ccsc1)NNC(=O)c1ccccc1O,6.92%
10,CCn1c(=O)c(C(=O)NC(C)C)c(O)c2ccccc21,17.3%
11,Cc1ccc(-c2nn(C(C)(C)C)c3ncnc(N)c23)cc1,11.1%
12,COc1ccc2c(c1)CC(C1(O)C(=O)Nc3ccccc31)C2=O (stereo not drawn),-15.1%
13,CCOc1ccccc1NC(=O)C1CC2CCCC(C1)C2=O (stereo not drawn),6.33%
14,Cc1ccc(S(=O)(=O)N(C)c2ccc(OCC(=O)Nc3ccc(C(=O)N(C)C)cc3)cc2)cc1C,12.2%
15,CN(C)CCCN(Cc1ccccc1)C(=S)NCc1ccccc1,10.2%
16,Cc1cc(C)c2nc(C)cc(Nc3ccc(C(=O)N(C)C)cc3)c2c1,4.59%
17,Cc1[nH]c(-c2ccccn2)nc(=S)c1Cl,8.75%
18,CC(C)CC(NC(=O)OC(C)(C)C)c1cn([C@@H](CCC(=O)OC(C)(C)C)C(=O)N2CCN(C(=O)OC(C)(C)C)CC2)nn1 (stereo partly drawn),11.7%
19,CCn1c(=O)n(CC)c2cc([N+](=O)[O-])ccc21,17.4%

row,Compound,"hERG current change (%, negative = inhibition) at 1uM"
1,O=C(COC(=O)C1CC1)Nc1c(Cl)cccc1C(F)(F)F,13.9%
2,Cc1cc(NC(=O)COC(=O)COc2ccc3c(c2)CCC3)no1,18.4%
3,CN(C(=O)C1CCCO1)c1nnc(-c2cnccn2)s1 (stereo not drawn),3.87%
4,Cc1ccc2cc(C)c(SCC(=O)Nc3cc(C)on3)nc2c1,16.6%
5,Cc1cc(C)nc(NC2=NCCS2)n1,17.9%
6,C=CCSc1nc2c(c(=O)n(C)c(=O)n2C)n1CC,4.43%
7,COCCN(Cc1cc2cc3c(cc2nc1Cl)OCO3)C(C)=O,-4.45%
8,O=C(CSc1ccccc1)N1CCc2ccccc21,7.36%
9,CC1CC(N(C(=O)c2ccc(Cl)cc2)c2ccccc2)c2ccccc2N1C(=O)c1ccco1 (stereo not drawn),16.1%
10,CCN(C(=O)CSc1nc2ccc(OC)cc2[nH]1)c1c(N)n(Cc2ccccc2)c(=O)[nH]c1=O,19.3%
11,O=C(CCC1CC(=O)Nc2ccccc21)NCc1ccc(F)cc1 (stereo not drawn),-1.91%
12,Cc1oc(C(C)(C)C)cc1C(=O)NC(Cc1ccccc1)C(=O)O (stereo not drawn),10.4%
13,COc1ccc(CC(=O)NNS(=O)(=O)c2ccc3ccccc3c2)cc1OC,9.9%
14,CC12CC3(C)CC(C)(C1)CC(C(N)=O)(C2)C3,12.8%
15,CCOC(=O)N1CCN(C2CCCN(C(=O)c3cccc(Cl)c3)C2)CC1 (stereo not drawn),8.44%
16,O=C(NCc1n[nH]c(=S)n1-c1cccc(Cl)c1)c1ccc(S(=O)(=O)N2CCCCC2)cc1,13.6%
17,CC(=O)Nc1ccc(N(C(=O)Cc2cccs2)C(C(=O)NC2CCCC2)c2ccncc2)cc1 (stereo not drawn),15.4%
18,O=C(NNC(=O)c1cncc(Br)c1)c1ccncc1,6.83%
19,Nc1ncnc2c1ncn2CCc1ccccc1,11.8%

row,Compound,"hERG current change (%, negative = inhibition) at 1uM"
1,O=C(NC1CCCC1)C(c1ccncc1)N(C(=O)c1csnn1)c1cccc(Cl)c1 (stereo not drawn),9.65%
2,CCC1CCCCN1S(=O)(=O)c1c(C)n(C)c(=O)n(C)c1=O (stereo not drawn),10.2%
3,COc1ccccc1C(=O)N1CCCC1(C#N)c1ccccc1 (stereo not drawn),-6.18%
4,COC(=O)C1=C(C)NC(=O)NC1c1ccc(N2CCC(c3ccccc3)=N2)cc1 (stereo not drawn),13.6%
5,Cc1ccc(SCc2cc(=O)[nH]c(/N=C(\N)Nc3ccc(C)c(C)c3)n2)cc1,1.37%
6,C=CCn1c(SCC(=O)NCC2CCCO2)nc2scc(-c3ccccc3)c2c1=O (stereo not drawn),-0.902%
7,NS(=O)(=O)c1ccc(CCNC(=O)COC(=O)COc2cccc(C(F)(F)F)c2)cc1,-4.29%
8,Cc1c(C(=O)N2CC(C)OC(C)C2)sc2nc(-c3ccccc3)cn12 (stereo not drawn),0.523%
9,Cc1nc(N2CCN(C(=O)c3ccco3)CC2)[nH]c(=O)c1C,18.5%
10,COC(=O)C1CCN(C(=O)CN2C(=O)c3ccccc3S2(=O)=O)CC1,20.5%
11,NNC(=O)c1nc(-c2ccccc2)n2c1CCCCC2,0.842%
12,O=C(CCCN1C(=O)c2ccccc2C1=O)Nc1nc2ccccc2[nH]1,2.71%
13,Cc1ccnc(NC(=O)c2cccc(S(=O)(=O)N3CCN(c4ccccc4)CC3)c2)c1,7.92%
14,COc1ccc(C(=O)CSc2nc(C)cc(C)n2)cc1C,-1.62%
15,Fc1cc(NCc2ccccc2)nc(NCc2ccccc2)n1,11.2%
16,CCN(CC)C(=O)N[C@H]1C[C@@H]2c3cccc4[nH]cc(c34)C[C@H]2N(C)C1,5.01%
17,COC(=O)C(Cc1ccccc1)NC(=O)CCCC(=O)NCc1cccc(OC)c1 (stereo not drawn),12.6%
18,Cc1ccc(NC(=S)N(CCCN2CCOCC2)Cc2cccnc2)cc1C,10.2%
19,COc1ccc(NS(=O)(=O)c2ccc3oc(SCc4ccc(F)cc4)nc3c2)cc1,-0.0014%
